Molecular target: T1, hIL-17A (human, UniProt Q16552 24-155)
T1 construct: Bought protein
Test: ELISA of cleared E. coli lysate on plate-captured hIL-17A, detected with biotinylated anti-hIL-17RA and streptavidin-HRP, OD 450 nm; concentration not given
Method: ELISA plates (Griener Microlon 96W) were incubated with 100 μl of 0.5 μg/ml goat α-hIL-17A antibodies (R&D Systems) for 1 hour, washed with PBS supplemented with 0.05% Tween-80 (PBST) and 100 μl of 0.35 μg/ml hIL-17A (R&D Systems or ProSpec Tany TechnoGene Ltd.) were added to the plate for an additional 1 hour. The plates were then washed with PBST and blocked by incubation with 100 μl of PBS supplemented with 3% skim milk for 1 hour. Following blocking, the plates were washed and incubated with 100 μl of the cleared lysate, cell media or purified protein generated (described above) at appropriate dilutions and shaken for 1 hour. hIL-17RA (R&D Systems) was applied at a concentration of 6.25 μg/ml as a positive control, and PBS supplemented with 1% BSA as a negative control. Plates were then washed with PBST, incubated with 100 μl of 0.05 μg/ml goat α-hIL-17RA antibodies (R&D Systems) followed by a secondary peroxidase-conjugated streptavidin (Jackson, 1:10000 dilution). Finally, 100 μl of the horseradish peroxidase (HRP) chromogenic 3,3′,5,5′-tetramethylbenzidine (TMB) substrate solution (Dako) were added. The reaction was stopped by the addition of 1 M sulfuric acid and recorded at 450 nm using a Tecan Infinite M200 plate reader.

Chain of hIL-17A (Q16552 24-155 limits assumed): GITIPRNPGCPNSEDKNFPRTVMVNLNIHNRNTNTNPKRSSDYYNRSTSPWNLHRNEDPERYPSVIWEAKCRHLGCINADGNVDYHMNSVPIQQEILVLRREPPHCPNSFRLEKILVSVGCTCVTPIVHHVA

B1: ECD (receptor)
chain: not shown
notes: also called WT hIL17RA-ECD expressed in E. coli (Trx-6xHis-tagged); not shown: Thioredoxin (Trx)-6xHis tag and linker of pET32
B1: binds.
